Test results: the supplement of paper PMC8728848
This is one part of the list.

Key:
Assay in all cases: glycan array binding signal (z-score within array); higher = stronger binding
Settings in all cases: glycan notation: IUPAC condensed, linker removed
[1] = target: Glc(a1-6)Glc(a1-6)Glc(a1-6)Glc
Outline: (§1)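 Glycan array binding is given as a within-array Z-score, which can be read as non-binding when negative. The arrays, 3228 of them, came from the Consortium for Functional Glycomics database and were retained only where the protein sequence was available. Z-scores were averaged across arrays of the same protein sequence at different concentrations or buffers and across linkers.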

Glc(b1-4)Glc = target: Glc(b1-4)Glc
Outline: as §1

Glc(b1-6)Glc = target: Glc(b1-6)Glc
Outline: as §1

GlcA(b1-3)Gal = target: GlcA(b1-3)Gal
Outline: as §1

GlcA(b1-3)GlcNAc = target: GlcA(b1-3)GlcNAc
Outline: as §1

GlcA(b1-6)Gal = target: GlcA(b1-6)Gal
Outline: as §1

[2] = target: GlcA3S(b1-3)Gal(b1-4)GlcNAc(b1-2)Man
Outline: as §1

[3] = target: GlcA3S(b1-3)Gal(b1-4)GlcNAc(b1-3)Gal(b1-4)Glc
Outline: as §1

[4] = target: GlcNAc(a1-3)Gal(b1-4)GlcNAc
Outline: as §1

[5] = target: GlcNAc(a1-4)Gal(b1-3)GlcNAc
Outline: as §1

[6] = target: GlcNAc(a1-4)Gal(b1-4)GalNAc
Outline: as §1

[7] = target: GlcNAc(a1-4)Gal(b1-4)GlcNAc
Outline: as §1

[8] = target: GlcNAc(a1-4)Gal(b1-4)GlcNAc(b1-3)Gal(b1-4)Glc
Outline: as §1

[9] = target: GlcNAc(a1-4)Gal(b1-4)GlcNAc(b1-3)Gal(b1-4)GlcNAc
Outline: as §1

[10] = target: GlcNAc(a1-4)Gal(b1-4)GlcNAc(b1-3)Gal(b1-4)GlcNAc(b1-3)Gal(b1-4)GlcNAc
Outline: as §1

[11] = target: GlcNAc(a1-4)Gal(b1-4)GlcNAc(b1-3)Gal(b1-4)[Fuc(a1-3)]GlcNAc(b1-3)Gal(b1-4)[Fuc(a1-3)]GlcNAc
Outline: as §1

[12] = target: GlcNAc(a1-6)Gal(b1-4)GlcNAc
Outline: as §1

[13] = target: GlcNAc(b1-2)Gal(b1-3)GalNAc
Outline: as §1

[14] = target: GlcNAc(b1-2)Man(a1-3)[GlcNAc(b1-2)Man(a1-6)]Man(b1-4)GlcNAc(b1-4)GlcNAc
Outline: as §1

[15] = target: GlcNAc(b1-2)Man(a1-3)[GlcNAc(b1-2)Man(a1-6)]Man(b1-4)GlcNAc(b1-4)[Fuc(a1-6)]GlcNAc
Outline: as §1

[16] = target: GlcNAc(b1-2)Man(a1-3)[GlcNAc(b1-4)][GlcNAc(b1-2)Man(a1-6)]Man(b1-4)GlcNAc(b1-4)GlcNAc
Outline: as §1

[17] = target: GlcNAc(b1-2)Man(a1-3)[GlcNAc(b1-4)][GlcNAc(b1-2)Man(a1-6)]Man(b1-4)GlcNAc(b1-4)[Fuc(a1-6)]GlcNAc
Outline: as §1

[18] = target: GlcNAc(b1-2)[GlcNAc(b1-4)]Man(a1-3)[GlcNAc(b1-2)Man(a1-6)]Man(b1-4)GlcNAc(b1-4)GlcNAc
Outline: as §1

[19] = target: GlcNAc(b1-2)[GlcNAc(b1-4)]Man(a1-3)[GlcNAc(b1-4)][GlcNAc(b1-2)Man(a1-6)]Man(b1-4)GlcNAc(b1-4)GlcNAc
Outline: as §1

[20] = target: GlcNAc(b1-2)[GlcNAc(b1-4)]Man(a1-3)[GlcNAc(b1-4)][GlcNAc(b1-2)[GlcNAc(b1-6)]Man(a1-6)]Man(b1-4)GlcNAc(b1-4)GlcNAc
Outline: as §1

[21] = target: GlcNAc(b1-2)[GlcNAc(b1-4)]Man(a1-3)[GlcNAc(b1-4)][GlcNAc(b1-2)[GlcNAc(b1-6)]Man(a1-6)]Man(b1-4)GlcNAc(b1-4)[Fuc(a1-6)]GlcNAc
Outline: as §1

[22] = target: GlcNAc(b1-2)[GlcNAc(b1-6)]Man(a1-6)[GlcNAc(b1-2)Man(a1-3)]Man(b1-4)GlcNAc(b1-4)GlcNAc
Outline: as §1

[23] = target: GlcNAc(b1-2)[GlcNAc(b1-6)]Man(a1-6)[GlcNAc(b1-2)Man(a1-3)]Man(b1-4)GlcNAc(b1-4)[Fuc(a1-6)]GlcNAc
Outline: as §1

[24] = target: GlcNAc(b1-2)[GlcNAc(b1-6)]Man(a1-6)[GlcNAc(b1-2)Man(a1-3)][GlcNAc(b1-4)]Man(b1-4)GlcNAc(b1-4)GlcNAc
Outline: as §1

[25] = target: GlcNAc(b1-2)[GlcNAc(b1-6)]Man(a1-6)[GlcNAc(b1-4)][GlcNAc(b1-2)Man(a1-3)]Man(b1-4)GlcNAc(b1-4)GlcNAc
Outline: as §1

GlcNAc(b1-3)Fuc = target: GlcNAc(b1-3)Fuc
Outline: as §1

GlcNAc(b1-3)Gal = target: GlcNAc(b1-3)Gal
Outline: as §1

[26] = target: GlcNAc(b1-3)Gal(b1-3)GalNAc
Outline: as §1

GlcNAc(b1-3)Gal(b1-4)Glc = target: GlcNAc(b1-3)Gal(b1-4)Glc
Outline: as §1

[27] = target: GlcNAc(b1-3)Gal(b1-4)GlcNAc
Outline: as §1

[28] = target: GlcNAc(b1-3)Gal(b1-4)GlcNAc(b1-2)Man(a1-3)[GlcNAc(b1-3)Gal(b1-4)GlcNAc(b1-2)Man(a1-6)]Man(b1-4)GlcNAc(b1-4)GlcNAc
Outline: as §1

[29] = target: GlcNAc(b1-3)Gal(b1-4)GlcNAc(b1-2)Man(a1-3)[GlcNAc(b1-3)Gal(b1-4)GlcNAc(b1-2)Man(a1-6)]Man(b1-4)GlcNAc(b1-4)[Fuc(a1-6)]GlcNAc
Outline: as §1

[30] = target: GlcNAc(b1-3)Gal(b1-4)GlcNAc(b1-2)[GlcNAc(b1-3)Gal(b1-4)GlcNAc(b1-6)]Man(a1-6)[GlcNAc(b1-3)Gal(b1-4)GlcNAc(b1-2)Man(a1-3)]Man(b1-4)GlcNAc(b1-4)GlcNAc
Outline: as §1

[31] = target: GlcNAc(b1-3)Gal(b1-4)GlcNAc(b1-3)Gal(b1-4)GlcNAc
Outline: as §1

[32] = target: GlcNAc(b1-3)Gal(b1-4)GlcNAc(b1-3)Gal(b1-4)GlcNAc(b1-2)Man(a1-3)[GlcNAc(b1-3)Gal(b1-4)GlcNAc(b1-3)Gal(b1-4)GlcNAc(b1-2)Man(a1-6)]Man(b1-4)GlcNAc(b1-4)GlcNAc
Outline: as §1

[33] = target: GlcNAc(b1-3)Gal(b1-4)GlcNAc(b1-3)Gal(b1-4)GlcNAc(b1-2)Man(a1-3)[GlcNAc(b1-3)Gal(b1-4)GlcNAc(b1-3)Gal(b1-4)GlcNAc(b1-2)Man(a1-6)]Man(b1-4)GlcNAc(b1-4)[Fuc(a1-6)]GlcNAc
Outline: as §1

[34] = target: GlcNAc(b1-3)Gal(b1-4)GlcNAc(b1-3)Gal(b1-4)GlcNAc(b1-2)[GlcNAc(b1-3)Gal(b1-4)GlcNAc(b1-3)Gal(b1-4)GlcNAc(b1-6)]Man(a1-6)[GlcNAc(b1-3)Gal(b1-4)GlcNAc(b1-3)Gal(b1-4)GlcNAc(b1-2)Man(a1-3)]Man(b1-4)GlcNAc(b1-4)[Fuc(a1-6)]GlcNAc
Outline: as §1

[35] = target: GlcNAc(b1-3)Gal(b1-4)GlcNAc(b1-3)Gal(b1-4)GlcNAc(b1-3)Gal(b1-4)GlcNAc(b1-2)Man(a1-3)[GlcNAc(b1-3)Gal(b1-4)GlcNAc(b1-3)Gal(b1-4)GlcNAc(b1-3)Gal(b1-4)GlcNAc(b1-2)Man(a1-6)]Man(b1-4)GlcNAc(b1-4)GlcNAc
Outline: as §1

[36] = target: GlcNAc(b1-3)Gal(b1-4)GlcNAc(b1-3)Gal(b1-4)GlcNAc(b1-3)Gal(b1-4)GlcNAc(b1-2)Man(a1-3)[GlcNAc(b1-3)Gal(b1-4)GlcNAc(b1-3)Gal(b1-4)GlcNAc(b1-3)Gal(b1-4)GlcNAc(b1-2)Man(a1-6)]Man(b1-4)GlcNAc(b1-4)[Fuc(a1-6)]GlcNAc
Outline: as §1

[37] = target: GlcNAc(b1-3)Gal(b1-4)GlcNAc(b1-3)Gal(b1-4)GlcNAc(b1-3)Gal(b1-4)GlcNAc(b1-2)[GlcNAc(b1-3)Gal(b1-4)GlcNAc(b1-3)Gal(b1-4)GlcNAc(b1-3)Gal(b1-4)GlcNAc(b1-6)]Man(a1-6)[GlcNAc(b1-3)Gal(b1-4)GlcNAc(b1-3)Gal(b1-4)GlcNAc(b1-3)Gal(b1-4)GlcNAc(b1-2)Man(a1-3)]Man(b1-4)GlcNAc(b1-4)[Fuc(a1-6)]GlcNAc
Outline: as §1

B1: Gal 1 (Mus musculus), P16045 (protein)
chain: MACGLVASNLNLKPGECLKVRGEVASDAKSFVLNLGKDSNNLCLHFNPRFNAHGDANTIVCNTKEDGTWGTEHREPAFPFQPGSITEVCITFDQADLTIKLPDGHEFKFPNRLNMEAINYMAADGDFKIKCVAFE
glycan array binding signal (z-score) [1]: -0.114 | glycan array binding signal (z-score) (Glc(b1-4)Glc): -0.292 | glycan array binding signal (z-score) (Glc(b1-6)Glc): -0.16 | glycan array binding signal (z-score) (GlcA(b1-3)Gal): -0.156 | glycan array binding signal (z-score) (GlcA(b1-3)GlcNAc): 0.529 | glycan array binding signal (z-score) (GlcA(b1-6)Gal): -0.204 | glycan array binding signal (z-score) [2]: 0.968 | glycan array binding signal (z-score) [3]: 0.769 | glycan array binding signal (z-score) [4]: -0.351 | glycan array binding signal (z-score) [5]: -0.437 | glycan array binding signal (z-score) [6]: -0.241 | glycan array binding signal (z-score) [7]: -0.325 | glycan array binding signal (z-score) [8]: -0.39 | glycan array binding signal (z-score) [9]: -0.374 | glycan array binding signal (z-score) [10]: -0.404 | glycan array binding signal (z-score) [11]: -0.015 | glycan array binding signal (z-score) [12]: -0.252 | glycan array binding signal (z-score) [13]: -0.318 | glycan array binding signal (z-score) [14]: -0.326 | glycan array binding signal (z-score) [15]: -0.306 | glycan array binding signal (z-score) [16]: -0.353 | glycan array binding signal (z-score) [17]: -0.412 | glycan array binding signal (z-score) [18]: 0.003 | glycan array binding signal (z-score) [19]: -0.366 | glycan array binding signal (z-score) [20]: -0.288 | glycan array binding signal (z-score) [21]: -0.276 | glycan array binding signal (z-score) [22]: -0.385 | glycan array binding signal (z-score) [23]: 0.049 | glycan array binding signal (z-score) [24]: -0.232 | glycan array binding signal (z-score) [25]: -0.388 | glycan array binding signal (z-score) (GlcNAc(b1-3)Fuc): -0.43 | glycan array binding signal (z-score) (GlcNAc(b1-3)Gal): -0.409 | glycan array binding signal (z-score) [26]: -0.222 | glycan array binding signal (z-score) (GlcNAc(b1-3)Gal(b1-4)Glc): -0.371 | glycan array binding signal (z-score) [27]: -0.328 | glycan array binding signal (z-score) [28]: -0.255 | glycan array binding signal (z-score) [29]: -0.095 | glycan array binding signal (z-score) [30]: -0.17 | glycan array binding signal (z-score) [31]: -0.141 | glycan array binding signal (z-score) [32]: 0.724 | glycan array binding signal (z-score) [33]: -0.19 | glycan array binding signal (z-score) [34]: 0.07 | glycan array binding signal (z-score) [35]: -0.18 | glycan array binding signal (z-score) [36]: 0.071 | glycan array binding signal (z-score) [37]: 0.254
